# Sequences with one replicate were seen in a single cluster, so their values are uncertain.
# Tested on: ATP
# Assay: switch fluorescence ratio, 500 uM ATP over buffer (Cy3 cluster intensity, sum of 5 cycles each) (fold (ratio)); higher = stronger signal-on switching upon ATP binding; sequences stand for … in TCGTCGGCAGCGTCAGATGTGTATAAGAGACAGTTTTTTTTTTTTTTTTTTTTTTTTT…TC
# Conditions: aptamer strand: ATP DNA aptamer (quencher-CACCTGGGGGAGTATTGCGGAGGAAGG + anchor), 100 nM annealed; ATP concentration: 500 uM; one replicate
# In short: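 The quencher-labelled ATP aptamer, at 100 nM, was annealed to Cy3-labelled switching-strand clusters on a modified Illumina MiSeq flow-cell. The clusters were imaged in selection buffer, then after 15 min with 500 uM ATP at 22 °C, and this buffer/ATP cycle ran five times with NaOH stripping and re-annealing between runs. Per-cluster fluorescence ratios, summed target-cycle over summed buffer-cycle Cy3 intensity, were averaged per switch-domain sequence. Clusters outside 100-1000 RFU were excluded.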
# 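Note: ATP exposure 15 min at 22 °C before imaging.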
row,Sequence,switch fluorescence ratio
1,CATCAGTAGA,1.04
2,CATCAGTGAT,1.07
3,CATCATAACT,1
4,CATCATGCTA,1.17
5,CATCCAGACA,1.04
6,CATCCAGATA,1.08
7,CATCCAGTGG,1.08
8,CATCCGTGCT,1.42
9,CATCCTGGAC,1.57
10,CATCCTTTCA,1.03
11,CATCGATC,0.991
12,CATCGCATGG,2.18
13,CATCGGGGCC,1.04
14,CATCGGGTAT,1.02
15,CATCTAGAAT,0.99
16,CATCTCCGAG,1.17
17,CATGAACCTT,1.6
18,CATGAATCTT,0.977
19,CATGACAGAC,1.14
20,CATGAGGACT,0.972
21,CATGAGGGAA,1.04
22,CATGAGGTAA,1.08
23,CATGAGTCAT,0.948
24,CATGCAATTG,0.963
25,CATGCATGTC,1.06
26,CATGCGGTCA,0.96

row,Sequence,switch fluorescence ratio
1,CATGCTAGTC,0.969
2,CATGCTGCTA,1
3,CATGCTGTAC,2.17
4,CATGGAAGAC,1.32
5,CATGGAGCAT,1.39
6,CATGGATATA,1
7,CATGGCAAAG,1.02
8,CATGGCCTGC,0.994
9,CATGGCGCGA,1.16
10,CATGGCTCTT,0.959
11,CATGGCTGGA,1.09
12,CATGGCTTTT,1
13,CATGGGACTC,1.03
14,CATGGGCAAA,0.976
15,CATGGGCAAC,1.09
16,CATGGGGTCA,1.01
17,CATGGGTAGG,0.967
18,CATGGGTCTC,1
19,CATGGTATCC,0.993
20,CATGGTGGGG,0.933
21,CATGTAGCAG,1.07
22,CATGTAGGGT,1.1
23,CATGTATATA,1
24,CATGTCTTGT,0.989
25,CATGTGAATT,0.953
26,CATGTGCATT,1.13

row,Sequence,switch fluorescence ratio
1,CATGTGTACC,1
2,CATGTTTGAA,1.01
3,CATTAAAGGC,1.02
4,CATTACTGGG,0.961
5,CATTAGAATT,0.996
6,CATTAGTGTT,1.02
7,CATTATATAG,0.965
8,CATTATGAGC,1.01
9,CATTATGGTT,1.03
10,CATTCACTTT,1.03
11,CATTCATTGC,1.03
12,CATTCCGTTT,1.07
13,CATTCGAGTG,0.99
14,CATTCGGTAG,1.01
15,CATTCGTGCG,1.01
16,CATTCTATA,1
17,CATTGAAAAG,1.01
18,CATTGAATGT,0.995
19,CATTGCTGAG,0.982
20,CATTGCTGCT,0.98
21,CATTGTGTCT,0.964
22,CATTTAACCC,0.995
23,CATTTAATGT,1.03
24,CATTTACTGC,1.05
25,CATTTCATTC,0.995
26,CATTTCCTTC,1.08

row,Sequence,switch fluorescence ratio
1,CATTTCTAAT,0.996
2,CATTTGAAG,0.965
3,CATTTGACTT,1.02
4,CATTTGCCTC,1.14
5,CATTTGGCA,0.995
6,CATTTTAACA,0.994
7,CATTTTATCC,1.03
8,CCAAACTACG,1.1
9,CCAAAGCGCA,2.14
10,CCAAATGGAC,1.06
11,CCAACCGGAC,1.58
12,CCAAGAAAGA,1.04
13,CCAAGAAGTG,1.08
14,CCAAGCATGA,2.16
15,CCAAGGAGT,1.01
16,CCAAGGGAAT,1.08
17,CCAAGGTAGG,0.996
18,CCAAGTCGTG,0.953
19,CCAAGTCTCA,0.982
20,CCAATGTCAG,0.959
21,CCAATTAGGA,0.967
22,CCAATTTAAA,1.01
23,CCAATTTCAG,1.03
24,CCACAATGCG,4.14
25,CCACAATGTA,1.22
26,CCACAATTAA,1.43

row,Sequence,switch fluorescence ratio
1,CCACACAGGG,1.5
2,CCACCAGCCG,1.33
3,CCACCATCC,1.44
4,CCACCGTACG,1.93
5,CCACCTTGTT,0.978
6,CCACGAAT,1.08
7,CCACGGGGCG,1.02
8,CCACGTCGAA,1.03
9,CCACTACTCA,1.21
10,CCACTATCAT,1
11,CCACTGCGAA,2.42
12,CCACTGCTGT,1.43
13,CCACTGGGAA,1.12
14,CCACTTCTTA,0.967
15,CCACTTTTGA,0.977
16,CCAGACAGCT,1.01
17,CCAGAGCAT,6.77
18,CCAGAGGCCT,0.998
19,CCAGATCCGG,1.02
20,CCAGATTGCC,0.95
21,CCAGCAGGTT,1.26
22,CCAGCATCGT,1.02
23,CCAGCCTGAC,2
24,CCAGCGCTA,3.68
25,CCAGCGTACG,1.07
26,CCAGCTGCAG,1.03

row,Sequence,switch fluorescence ratio
1,CCAGCTGGCC,1.01
2,CCAGCTGGTG,1.14
3,CCAGGACGTG,1.03
4,CCAGGCCTGT,1.03
5,CCAGGGAGGA,1.04
6,CCAGGGCGTA,1.02
7,CCAGGGTTTC,1.02
8,CCAGGTACCC,1.01
9,CCAGTAAACG,1.02
10,CCAGTATTGT,0.991
11,CCAGTCTACC,1.03
12,CCAGTGCACC,1.08
13,CCAGTTTCAC,0.993
14,CCATAAAGTG,1.05
15,CCATAAGTCG,1.06
16,CCATACTTGT,1.02
17,CCATAGATAA,1.04
18,CCATAGGGAG,1.02
19,CCATAGTGAT,1.78
20,CCATAGTTG,1.03
21,CCATCAAAAA,0.973
22,CCATCAACCG,1.05
23,CCATCCAGGT,3.32
